Among all 150,000 compounds or so, about 6,500 (4.3%) were called active. The shares of active, inactive and inconclusive entries below differ from those in the screen. Calls come from the whole dose curve; as a rule, active = well fitted inhibition curve with a large enough effect (not every such curve was filed as active); inconclusive = small, poorly fitted or top-dose-only effect, or another doubt; inactive = no such curve, though single readings can be large or run the other way. A potency beside an inconclusive call is a rough fit, not a confirmed value.
Biological target: 15-hydroxyprostaglandin dehydrogenase [NAD(+)] (Homo sapiens) (UniProt P15428)
Assay: qHTS Assay for Inhibitors of HPGD (15-Hydroxyprostaglandin Dehydrogenase)
Conditions: purified HPGD, NADH fluorescence kinetic, PGE2 substrate; activity change, negative = inhibition: active compounds read low
How it was run: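 20 nM HPGD preincubated 15 min at room temperature with compound in 50 mM Tris-HCl pH 8, 0.01% Tween 20. Started with 1 mM NAD+ and 30 uM prostaglandin E2; NADH fluorescence (360/450 nm) read 5 times over 30-s intervals, last minus first.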
% is set by controls: 0 for no effect and ±100 for the full control effect; potency is the fitted concentration of half-maximal effect; tags give direction and shape of the fitted curve.

Chain of UniProt P15428 (P15428 whole entry, looked up): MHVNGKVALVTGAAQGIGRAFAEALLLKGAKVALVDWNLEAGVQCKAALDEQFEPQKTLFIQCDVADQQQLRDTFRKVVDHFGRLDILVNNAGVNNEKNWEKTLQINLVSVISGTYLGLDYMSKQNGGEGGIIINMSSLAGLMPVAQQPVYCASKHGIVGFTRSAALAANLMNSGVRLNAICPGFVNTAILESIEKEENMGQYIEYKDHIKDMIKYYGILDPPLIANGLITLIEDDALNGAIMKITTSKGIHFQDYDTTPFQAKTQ

Potency, active:
Cc1cccc(N=Nc2c(C)nn(-c3ccccc3)c2N)c1C 15.8 µM, Nc1nc(SCC(=O)NNc2c(Cl)cc(Cl)cc2Cl)n[nH]1 35.5 µM, COC(=O)c1c(NC(=O)Cc2cccs2)sc(C(=O)N2CCCCC2)c1C 15.8 µM, Cn1c(SCc2ccc(C(=O)Nc3nccs3)cc2)nnc1-c1ccccc1 14.1 µM, C=CCn1c(-c2csc3c2CCC(C)C3)n[nH]c1=S (configuration not stated) 20 µM, O=C1C(c2cc(=O)c3ccccc3[nH]2)=C(O)c2ccccc21 14.1 µM, Cc1ccccc1-c1nc2sc3c(c2c(=O)o1)CCC3 15.8 µM, O=C(c1cccnc1)N(c1cc2sc(=O)oc2c2ccccc12)S(=O)(=O)c1ccccc1 17.8 µM, C/C(=C\C(=O)c1cccnc1)Nc1ccc(O)cc1 15.8 µM, N#CC(=C(\N)Sc1ccccc1N)/C(C#N)=C(/N)Sc1ccccc1N 8.91 µM, CC(C(=O)O)N1C(=O)/C(=C/C=C/c2ccco2)SC1=S (configuration not stated) 15.8 µM, CC(C)c1ccc(N2C(=O)CC(Sc3ncn[nH]3)C2=O)cc1 (configuration not stated) 15.8 µM, COCCCNc1nc(=S)[nH]c2cc(OC)c(OC)cc12 14.1 µM, C=C1c2cccc(O)c2C(O)=C2C(=O)[C@@]3(O)C(O)=C(C(N)=O)C(=O)[C@@H](N(C)C)[C@@H]3[C@@H](O)[C@H]12 10 µM, COc1ccc(NS(=O)(=O)c2ccc3oc(SC4CCOC4=O)nc3c2)cc1 (configuration not stated) 31.6 µM, O=C(c1ccc(COc2ccccc2[N+](=O)[O-])o1)N1CCCCC1 22.4 µM, O=C(Cc1ccc(Cl)cc1Cl)Nc1cccc(S(=O)(=O)Nc2ccccc2F)c1 3.55 µM, Cc1ccc(CNC(=O)c2sccc2-n2cccc2)cc1 12.6 µM

Potency, inconclusive:
N#C/C(=C\c1cn(-c2ccccc2)nc1-c1ccccc1)S(=O)(=O)c1ccccc1 25.1 µM [inhibitor, partial curve], Cc1oncc1-c1cn2ccccc2n1 15.8 µM [inhibitor, partial curve], COc1ccc(Nc2oc(-c3cccs3)nc2C#N)cc1 28.2 µM [inhibitor, partial curve], Nc1cc(C(=O)OCC(=O)N2CCCC2)ccc1Cl 31.6 µM [inhibitor, partial curve], O=C(Cn1cncc1-c1ccc([N+](=O)[O-])cc1)Nc1ccccc1F 39.8 µM [inhibitor, partial curve], CCCCCCc1cc2cc(C(=O)NCc3ccccc3)c(=N)oc2cc1O 35.5 µM [inhibitor, single point], O=C(NCCN1CCN(Cc2ccccc2)CC1)c1cc2c(=O)[nH]c3ccccc3c2s1 28.2 µM [inhibitor, partial curve], O=C(CSc1oc(-c2ccccc2)nc1S(=O)(=O)c1ccc(F)cc1)NCC1CCCO1 (configuration not stated) 39.8 µM [inhibitor, single point], N#Cc1c(N2CCCC(O)C2)nc(N)c2c(N)nc3c(c12)CC(=O)N3C12CC3CC(CC(C3)C1)C2 (configuration not stated) 7.94 µM [inhibitor, partial curve], Cc1c(C#N)sc2nc(-c3ccccc3)nc(N3CCCC3)c12 31.6 µM [inhibitor, partial curve], O=C(Nc1ccccc1)c1ccc(N2CCN(c3ccccc3)CC2)c(S(=O)(=O)N2CCOCC2)c1 25.1 µM [inhibitor, single point], Cc1ccsc1/C=C/C1=Cc2c(sc(NC(=O)CSc3n[nH]c(N)n3)c2C#N)C(C)(C)C1 14.1 µM [inhibitor, partial curve], Cc1nc2sc(C#N)c(N)c2c2c1CCCC2 28.2 µM [inhibitor, partial curve], COc1ccc2c(C)cc(=O)oc2c1C 28.2 µM [inhibitor, partial curve], CSc1cnn(Cc2ccccc2)c(=O)c1SCc1ccccc1 25.1 µM [inhibitor, partial curve], COc1cccc(-c2cc(NCc3cccs3)ncn2)c1 25.1 µM [inhibitor, partial curve], Cc1onc(-c2c(F)cccc2Cl)c1C(=O)NC(=S)NC1CCSC1=O (configuration not stated) 14.1 µM [inhibitor, partial curve, poor fit], O=C(CSc1ccc2nnc(-c3ccccn3)n2n1)N1CCOCC1 28.2 µM [inhibitor, partial curve], COc1ncc2nc(-c3ccc(Cl)cc3)c(=O)n(C[C@H]3CCCO3)c2n1 12.6 µM [inhibitor, partial curve], Cc1ccccc1N1CCN(CCCOc2ccc3c(C)cc(=O)oc3c2)CC1 28.2 µM [inhibitor, partial curve], Cc1ccc(N2C(=O)CC(Sc3nc4ccccc4o3)C2=O)cc1Cl (configuration not stated) 28.2 µM [inhibitor, partial curve, poor fit], COC(=O)c1ccccc1NS(=O)(=O)c1ccc2c3c(cccc13)C(=O)N2 28.2 µM [inhibitor, single point], N#Cc1ccccc1NC(=O)c1ccc2c(Cl)c3c(nc2c1)CCCC3 31.6 µM [inhibitor, partial curve], COc1nc(N=C(N)N)nc2c(C)cccc12 28.2 µM [inhibitor, partial curve], CN(CCc1ccccn1)S(=O)(=O)c1ccc2c3c(cccc13)C(=O)N2 28.2 µM [inhibitor, partial curve], COC(=O)c1ccccc1N=C(SC)N(C)C 31.6 µM [inhibitor, single point], N#C/C(=C\c1ccc(O)c(O)c1)C(=O)NCc1ccccc1 31.6 µM [inhibitor, partial curve], O=c1nc2n(Cc3ccccc3)c3ccccc3cc-2c(=O)[nH]1 28.2 µM [inhibitor, partial curve], CCc1cccc2c(C(=O)Cn3nnc(-c4ccc(OC)c(OC)c4)n3)c[nH]c12 31.6 µM [inhibitor, partial curve], Cc1ccc(C(=O)O)cc1N=Cc1cc(Br)cc(Br)c1O 25.1 µM [inhibitor, partial curve], CCOC(=O)C1CCN(C(=O)Nc2ccc3nccnc3c2)CC1 31.6 µM [inhibitor, partial curve], CC(C)c1ccc2oc(-c3ccc(NC(=O)c4ncn[nH]4)cc3)nc2c1 25.1 µM [inhibitor, partial curve], COC(=O)c1c(N)n(CCCN2CCOCC2)c2nc3ccccc3nc12 31.6 µM [inhibitor, partial curve], COC(=O)c1cc2c([nH]c3ccccc32)c(C)n1 31.6 µM [inhibitor, partial curve], O=C(Nc1ccon1)c1cc(-c2ccccc2)nc2ccccc12 31.6 µM [inhibitor, partial curve], CCOC(=O)CSc1cn2c(n1)CCC2 39.8 µM [inhibitor, single point], COc1ccc(-c2cc(C(=O)O)c3sc(N4CCCCC4)nc3n2)cc1OC 14.1 µM [inhibitor, partial curve], N=c1c(C(=O)NCc2ccc(F)cc2)cc2c(=O)n3ccccc3nc2n1CC1CCCO1 (configuration not stated) 14.1 µM [inhibitor, partial curve], COc1ccccc1C1CC(c2ccco2)=NN1c1ccccc1 (configuration not stated) 28.2 µM [inhibitor, partial curve], O=c1c(-c2ccccc2)coc2c(CN3CCOCC3)c(O)ccc12 14.1 µM [inhibitor, partial curve]

Activity change, negative = inhibition, inactive:
Cc1ccc(NC(=O)CSc2nc3ccccc3c3nc4ccccc4n23)cc1 -15.2%, O=C(Oc1ccc(NC2=C(Cl)C(=O)c3ccccc3C2=O)cc1)c1ccc([N+](=O)[O-])cc1 -7.85%, COc1ccc(-c2nn(-c3ccccc3)cc2CNC(=O)c2cccc([N+](=O)[O-])c2)cc1 -11.6%, O=C(OCc1cnc(Cl)s1)c1ccccc1Cl -11.3%, C#CCn1c(=O)c2c(ncn2C)n(C)c1=O -8.08%, CCN(CC)S(=O)(=O)c1ccc(N2CCOCC2)c(NC(=O)Cc2cccc3ccccc23)c1 -15%, O=C1c2ccccc2-c2nc3ccccc3nc21 -20%, CCOC(=O)C1=C(C)NC(C)=C(C(=O)OCC)C1C(=O)OCC(=O)N1CCCCC1CC (configuration not stated) -19.4%, CCOC(=O)C1=C(N)OC2=C(C(=O)CC(C)(C)C2)C1c1cccs1 (configuration not stated) -20.6%, Cc1cccc(OCCCC(=O)NC(C)C)c1 -13.7%, CC/C=C\C/C=C\C/C=C\C/C=C\C/C=C\C/C=C\CCC(N)=O -7.31%, CC(C)=N/N=C1/NC(=O)C(CC(=O)Nc2cc(Cl)ccc2C)S1 (configuration not stated) -10.6%, CCC(COC(=O)Nc1cccc(C)c1)NC(=O)OCC(C)C (configuration not stated) -13.8%, N#Cc1ccccc1NC(=O)Nc1cccc(Cl)c1 -5.43%
